Source: PubChem BioAssay AID1508623 (National Center for Advancing Translational Sciences (NCATS), 2021)
Screen size: about 48,000 compounds; about 450 (0.94%) were called active. The inconclusive results got no clear call from the source; some entries with a clear call stand among them for comparison. Calls come from the whole dose curve; as a rule, active = well fitted inhibition curve with a large enough effect; inconclusive = small, poorly fitted or top-dose-only effect; inactive = no such curve, though single readings can be large or run the other way. A potency beside an inconclusive call is a rough fit, not a confirmed value.

Test: Primary qHTS for Identification of Small Molecule Inhibitors of Huntingtin Promoter Activity; note: nearly all actives have a fitted effect of over 50% in size
Details: HEK293 HTT promoter firefly luciferase reporter (activity 0% = vehicle and -100% = no light), 24 h; series mostly up to 57.5 µM
Method in brief: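 Quantitative HTS used concentration series of up to 57.5 uM final on HEK293 luciferase reporter cells, 24 h at 37 degrees C. Readout was Dual-Glo firefly luminescence.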
Potency is the fitted concentration of half-maximal effect; tags give direction and shape of the fitted curve.

Compound	Potency
CCOc1ccc(CCNC(=O)CCCc2nnc3n(CC)c(=O)c4sccc4n23)cc1OCC	inactive
C[C@@H]1O[C@@H](O[C@H]2CC[C@@]3(C)[C@H](CC[C@@H]4[C@H]3C[C@@H](O)[C@]3(C)[C@@H](C5=CC(=O)OC5)CC[C@]43O)C2)C[C@H](O)[C@@H]1O[C@H]1C[C@H](O)[C@H](O[C@H]2C[C@H](O)[C@@H](O)[C@@H](C)O2)[C@H](C)O1 (stereo in doubt)	inconclusive: 0.28 µM [inhibitor, full curve]
CCOc1ccc(NC(=O)CSc2nnc(-c3ccc(OCC)cc3)o2)cc1	inconclusive: 1.58 µM [inhibitor, full curve, poor fit]
COc1ccc(CNC(=O)Nc2ccc3c(c2)N(C)C(=O)c2ccccc2S3)cc1OC	inconclusive: 35.5 µM [inhibitor, partial curve, poor fit]
CCOc1ccc(N(CC(=O)Nc2ccccc2CC)S(=O)(=O)c2c(C)noc2C)cc1	inconclusive: 7.94 µM [inhibitor, partial curve, poor fit]
COc1ccc(C(=O)NNc2ncnc3c2cnn3-c2ccc(C)c(Cl)c2)cc1	inconclusive: 4.47 µM [inhibitor, full curve]
COc1ccc(Br)cc1CNC(=O)c1ccc2c(c1)nc1n2CCC(C)C1 (stereo not drawn)	inactive
CCOC(=O)C1CCN(C(=O)Cn2ncc3c4ccccc4n(Cc4ccc(F)cc4)c3c2=O)CC1	inconclusive: 22.4 µM [inhibitor, single point]
Cc1cc(NC(=O)CSc2ncc(C(=O)Nc3ccc(Cl)cc3)c(=O)n2C)no1	inactive
CCC(CC)C(=O)Nc1ccc2nc(SCC(=O)N3CCc4ccccc43)sc2c1	inconclusive: 39.8 µM [inhibitor, single point]
Cc1ccc(CNC(=O)CN(c2cccc(C)c2C)S(=O)(=O)c2ccccc2)cc1	inconclusive: 39.8 µM [inhibitor, partial curve, poor fit]
CC(=O)c1cccc(NC(=O)C2CCCN(C(=O)c3cnn(-c4ccccc4)c3-n3cccc3)C2)c1 (stereo not drawn)	inconclusive: 35.5 µM [inhibitor, single point]
O=C(c1ccc2c(c1)N(Cc1ccc(F)cc1)C(=O)c1ccccc1S2(=O)=O)N1CCN(Cc2ccccc2)CC1	inconclusive: 35.5 µM [inhibitor, single point]
COc1cc(OC)c(OC)cc1/C=C/c1nc2cc3ccccc3cc2c(=O)n1-c1ccc(F)c(Cl)c1	inconclusive: 39.8 µM [inhibitor, single point]
Cc1ccc(OCC(=O)Nc2cccc(-c3nc4ccccc4o3)c2C)cc1C	inconclusive: 1.58 µM [inhibitor, full curve, poor fit]
O=C(CSCc1ccc(F)cc1)N1CCN(c2ccc(Cl)cc2)CC1	inconclusive: 28.2 µM [inhibitor, partial curve, poor fit]
Clc1ccc(CN2CCC(CNc3ncnc4onc(-c5ccc(Cl)cc5)c34)CC2)cc1	inconclusive: 25.1 µM [inhibitor, single point]
COC(=O)c1ccc(NC(=O)CC2C(=O)N(c3cccc(F)c3)C(=O)N2CC(C)C)cc1 (stereo not drawn)	inconclusive: 35.5 µM [inhibitor, partial curve, poor fit]
COc1cccc(C(=O)Nc2nc3c(s2)CCCC3)c1	inactive

Compound	Potency
CCOc1ccc(C2c3[nH]c4ccccc4c3CCN2C(=O)CSc2ccccc2)cc1 (stereo not drawn)	inconclusive: 15.8 µM [inhibitor, partial curve]
CCOc1cc(CNCCSc2nnnn2C)ccc1OCc1ccc(Cl)cc1Cl	inconclusive: 35.5 µM [inhibitor, partial curve, poor fit]
COc1ccc(Cn2c(SCc3ccc(C(=O)NC4CCCCC4)cc3)nc3cccnc32)cc1	inconclusive: 39.8 µM [inhibitor, single point]
COc1ccccc1-c1cc(C(F)(F)F)nc(S(=O)(=O)CCCC(=O)Nc2ccccc2F)n1	inconclusive: 31.6 µM [inhibitor, single point]
CN(C)c1ccc(C(=O)Nc2sc(Nc3ccccc3)nc2C(N)=O)cc1	inconclusive: 17.8 µM [inhibitor, partial curve, poor fit]
CCCCCn1c(=O)[nH]c2cc(C(=O)N3CCN(c4ccc(OC)cc4)CC3)ccc2c1=O	inconclusive: 12.6 µM [inhibitor, partial curve]
CCOC(=O)C1CCC(CN(Cc2ccc(OC)cc2)S(=O)(=O)c2ccc(C)cc2)CC1 (stereo not drawn)	inconclusive: 28.2 µM [inhibitor, single point]
O=C(Nc1cc(Cl)cc(Cl)c1)c1ccc(F)c(S(=O)(=O)N2CCCC2)c1	inconclusive: 39.8 µM [inhibitor, single point]
COc1ccc(CCNC(=O)C(=O)NCC(c2ccco2)S(=O)(=O)c2cccs2)cc1 (stereo not drawn)	inconclusive: 39.8 µM [inhibitor, single point]
COc1cc2c(C(=O)N3CCN(c4cccc(Cl)c4)CC3)cn(C)c(=O)c2cc1OC	inconclusive: 39.8 µM [inhibitor, single point]
COc1ccc(NC(=O)c2cnc(N3CCOCC3)c3ccccc23)cc1OC	inactive
COc1ccc(-c2nc3ccccc3n2Cc2ccc(C(C)C)cc2)cc1	inconclusive: 20 µM [inhibitor, single point]
Clc1cccc(N2CCN(c3ncnc4c3nc3n4CCCC3)CC2)c1	inactive
COc1ccc(C(=O)NCC(c2cccs2)S(=O)(=O)c2ccc(F)c(C)c2)cc1 (stereo not drawn)	inactive
COc1ccc(CCNC(=O)c2c(C)oc3nc(C)nc(N4CCOCC4)c23)cc1OC	inactive
Cn1cc(S(=O)(=O)N2CCCCCC2)cc1C(=O)NCc1ccc(Cl)cc1	inconclusive: 31.6 µM [inhibitor, single point]
CCN1CCOC(=O)C1CC(=O)Nc1cccc(OC)c1 (stereo not drawn)	inactive
Cc1cccc(-c2nc(SCC(=O)NCC3CCCO3)c3c(=O)n(C)c(=O)n(C)c3n2)c1 (stereo not drawn)	inactive
CCOC(=O)c1ccc(NC(=O)Nc2ccc3snnc3c2)cc1	inactive
